Drawing on the antibiotic and cytotoxicity screens of Wong et al. (2023), this text covers cytotoxicity call and growth inhibition call for 28 molecules.

This is one part of the list.

One assay relates to HSkMC. Put plainly: cytotoxicity call (relative viability < 0.9). The note with it: 10 µM.
The next assay relates to HepG2. The assay can be described thus: cytotoxicity call (relative viability < 0.9). Particulars: 10 µM.
Another assay deals with S. aureus RN4220. Put plainly: growth inhibition call (relative growth <= 0.2). The note with it: 50 µM.

Consider `C[C@@H]1CCCCO[C@@H](CN(C)S(=O)(=O)c2ccc(F)cc2)[C@H](C)CN([C@@H](C)CO)C(=O)c2cc(NS(=O)(=O)c3cn(C)cn3)ccc2O1`, for which the cytotoxicity call in the assay on HSkMC and in the assay on HepG2 was “inactive” each time. For the same molecule, in the assay with S. aureus RN4220, the growth inhibition call was “inactive”.

Take `CN(C)CCOc1ccc(C(=C(CCCl)c2ccccc2)c2ccccc2)cc1.O=C(O)CC(O)(CC(=O)O)C(=O)O`: the cytotoxicity call in the assay on HSkMC and with HepG2 was “active” throughout. The growth inhibition call in the assay on S. aureus RN4220 is “active”.

As for `COc1ccc(NC(=O)N(C)C[C@H]2OCCCC[C@H](C)Oc3ccc(NC(=O)Cc4ccccc4)cc3C(=O)N([C@@H](C)CO)C[C@@H]2C)cc1`, the cytotoxicity call with HSkMC and in the assay with HepG2 was “inactive” throughout. For the same molecule, in the assay on S. aureus RN4220, the growth inhibition call was “inactive”.

Regarding `CCc1ccc(/C=C2\SC(=O)N(CCCCCCNC(=O)c3ccccc3Nc3ccc([N+](=O)[O-])c4nonc34)C2=O)cc1`, the cytotoxicity call in the assay on HSkMC and in the assay on HepG2 was “active” each time. Further, the growth inhibition call with S. aureus RN4220 is “inactive”.

On to `O=C(C[C@H]1CC[C@H]2[C@@H](COC[C@H](O)CN2S(=O)(=O)c2cccc(Cl)c2)O1)N1CCOCC1`, for which the cytotoxicity call in the assay with HSkMC and in the assay with HepG2 was “inactive” throughout. In addition, in the assay on S. aureus RN4220, the growth inhibition call is “inactive”.

Consider `COCC#Cc1ccc2c(c1)O[C@H](CN(C)S(=O)(=O)c1cccc(OC)c1)[C@@H](C)CN([C@@H](C)CO)S2(=O)=O`, for which the cytotoxicity call with HSkMC and in the assay on HepG2 was “inactive” each time. Also, the growth inhibition call in the assay with S. aureus RN4220 was “inactive”.

In the case of `C[C@@H]1CN([C@H](C)CO)C(=O)c2cc(NS(=O)(=O)c3cccs3)ccc2O[C@H]1CN(C)S(C)(=O)=O`, the cytotoxicity call in the assay with HSkMC and in the assay with HepG2 was “inactive” each time. Also, in the assay on S. aureus RN4220, the growth inhibition call was “inactive”.

As to `C[C@@H]1CCCCO[C@H](CN(C)S(=O)(=O)c2cn(C)cn2)[C@H](C)CN([C@H](C)CO)C(=O)c2cc(NS(=O)(=O)c3ccc(F)cc3)ccc2O1`, the cytotoxicity call with HSkMC and with HepG2 was “inactive” throughout. Besides, in the assay on S. aureus RN4220, the growth inhibition call was “inactive”.

Regarding `C[C@@H]1CN([C@@H](C)CO)C(=O)c2cc(-c3cncnc3)cnc2O[C@H]1CN(C)C(=O)CN1CCOCC1`, the cytotoxicity call in the assay with HSkMC and with HepG2 was “inactive” throughout. Moreover, in the assay with S. aureus RN4220, the growth inhibition call is “inactive”.

Consider `C[C@@H]1CN([C@@H](C)CO)C(=O)Cc2cc(NC(=O)Cc3ccccc3)ccc2O[C@@H]1CN(C)Cc1ccc(-c2ccccc2)cc1`, for which, in the assay with HSkMC, the cytotoxicity call was “inactive”. The cytotoxicity call in the assay with HepG2 is “active”. Moreover, in the assay on S. aureus RN4220, the growth inhibition call was “inactive”.

As to `C[C@H]1CCCCO[C@H](CN(C)C(=O)Nc2cccc3ccccc23)[C@@H](C)CN([C@@H](C)CO)C(=O)c2cc(NC(=O)Nc3ccc(F)cc3)ccc2O1`, the cytotoxicity call in the assay with HSkMC and in the assay on HepG2 was “inactive” throughout. Moreover, in the assay with S. aureus RN4220, the growth inhibition call was “inactive”.

Consider `c1ccc(-c2ccc([C@H](c3ccccc3)n3ccnc3)cc2)cc1`, for which the cytotoxicity call with HSkMC and in the assay on HepG2 was “inactive” in each case. Further, in the assay on S. aureus RN4220, the growth inhibition call was “inactive”.

For `C[C@@H]1CN([C@@H](C)CO)C(=O)Cc2cc(NC(=O)C3CC3)ccc2O[C@@H]1CN(C)S(=O)(=O)c1ccc(F)cc1`, the cytotoxicity call in the assay on HSkMC and with HepG2 was “inactive” throughout. Further, the growth inhibition call with S. aureus RN4220 was “inactive”.

Consider `COC(=O)C[C@@H]1CC[C@H]2[C@@H](COC[C@H](O)CN2S(=O)(=O)c2cn(C)cn2)O1`, for which the cytotoxicity call in the assay with HSkMC and with HepG2 was “inactive” throughout. Further, the growth inhibition call with S. aureus RN4220 was “inactive”.

Take `Cc1noc(C)c1S(=O)(=O)Nc1ccc2c(c1)C(=O)N([C@@H](C)CO)C[C@H](C)[C@H](CN(C)Cc1ccc(C(=O)O)cc1)O2`: the cytotoxicity call with HSkMC and with HepG2 was “inactive” each time. Besides, in the assay on S. aureus RN4220, the growth inhibition call was “inactive”.

For `C[C@@H]1CN([C@H](C)CO)C(=O)Cc2cc(NS(=O)(=O)c3ccc(Cl)cc3)ccc2O[C@H]1CN(C)Cc1ccc(C(F)(F)F)cc1`, the cytotoxicity call in the assay with HSkMC and with HepG2 was “active” in each case. Besides, the growth inhibition call in the assay with S. aureus RN4220 is “inactive”.

For `C[C@H]1CCCCO[C@@H](CN(C)S(=O)(=O)c2ccc(Cl)cc2)[C@@H](C)CN([C@@H](C)CO)C(=O)c2cc(NS(=O)(=O)c3ccccc3)ccc2O1`, the cytotoxicity call with HSkMC and with HepG2 was “inactive” each time. Also, the growth inhibition call with S. aureus RN4220 is “inactive”.

As for `CC(=O)N1[C@H](CO)[C@H](c2ccccc2)[C@@H]1CNC(=O)CN1CCOCC1`, the cytotoxicity call in the assay on HSkMC and in the assay with HepG2 was “inactive” throughout. Further, the growth inhibition call in the assay with S. aureus RN4220 is “inactive”.

As for `CCCC(=O)Nc1ccc2c(c1)C(=O)N(C)C[C@@H](OC)[C@@H](C)CN(Cc1ccc(-c3ccccn3)cc1)[C@@H](C)CO2`, the cytotoxicity call in the assay with HSkMC and with HepG2 was “inactive” in each case. In addition, in the assay on S. aureus RN4220, the growth inhibition call is “inactive”.

Take `COc1ccc(CN(C)C[C@@H]2OCCCC[C@H](C)Oc3ccc(NS(=O)(=O)c4ccc(F)cc4)cc3C(=O)N([C@H](C)CO)C[C@@H]2C)cc1`: the cytotoxicity call in the assay with HSkMC was “inactive”. For the same molecule, in the assay on HepG2, the cytotoxicity call was “active”. Moreover, the growth inhibition call in the assay with S. aureus RN4220 was “inactive”.

For the molecule `C[C@@H]1CCCCO[C@@H](CN(C)Cc2ccc3c(c2)OCO3)[C@H](C)CN([C@@H](C)CO)C(=O)c2cc(NS(=O)(=O)c3cccs3)ccc2O1`, the cytotoxicity call with HSkMC and with HepG2 was “inactive” throughout. Moreover, in the assay on S. aureus RN4220, the growth inhibition call was “inactive”.

As for `CN(C)CCn1cnc2ccccc2c1=O`, the cytotoxicity call with HSkMC and in the assay on HepG2 was “inactive” each time. The growth inhibition call in the assay on S. aureus RN4220 was “inactive”.

For the molecule `C[C@H](CO)N1C[C@H](C)[C@@H](CN(C)Cc2ccc(C(F)(F)F)cc2)OCCCC[C@H](C)Oc2ccc(NC(=O)NC3CCCCC3)cc2C1=O`, the cytotoxicity call in the assay with HSkMC and in the assay on HepG2 was “active” each time. Further, the growth inhibition call in the assay on S. aureus RN4220 is “inactive”.

Take `C[C@H](CO)N1C[C@H](C)[C@@H](CN(C)C(=O)Nc2ccc(C(F)(F)F)cc2)Oc2c(NC(=O)Nc3ccccc3)cccc2C1=O`: the cytotoxicity call in the assay on HSkMC and in the assay on HepG2 was “inactive” each time. Besides, the growth inhibition call in the assay on S. aureus RN4220 is “inactive”.

With `CC(C)NC(=O)N(C)C[C@@H]1Oc2ccc(NC(=O)C3CCCCC3)cc2CC(=O)N([C@H](C)CO)C[C@H]1C`, the cytotoxicity call with HSkMC and in the assay with HepG2 was “inactive” each time. The growth inhibition call in the assay with S. aureus RN4220 was “inactive”.

`COc1ccc(C#Cc2ccc3c(c2)O[C@H](CN(C)S(=O)(=O)c2ccccc2F)[C@@H](C)CN([C@H](C)CO)S3(=O)=O)cc1`: the cytotoxicity call in the assay with HSkMC and with HepG2 was “inactive” throughout. The growth inhibition call in the assay on S. aureus RN4220 was “inactive”.

In the case of `C[C@H]1CCCCO[C@@H](CN(C)C(=O)Nc2ccc(C(F)(F)F)cc2)[C@@H](C)CN([C@@H](C)CO)C(=O)c2cc(NC(=O)NC3CCCCC3)ccc2O1`, the cytotoxicity call in the assay on HSkMC (human skeletal muscle cells) and with HepG2 was “inactive” in each case. Also, the growth inhibition call with S. aureus RN4220 was “inactive”.

Consider `CCS(=O)(=O)N1C[C@]2(CN(C2)S(=O)(=O)c2cn(cn2)C)c2c([nH]c3cc(ccc23)OC)[C@@H]1CO`, for which the cytotoxicity call with HSkMC and with HepG2 was “inactive” each time. Further, the growth inhibition call in the assay with S. aureus RN4220 was “inactive”.
